Experimental data published in PubChem BioAssay (NCI).
Where “and” joins values, the source holds several entries; their conditions need not be identical. Equal values may be shown once.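 Method: 48-hour compound exposure of cells in 96-well plates, five concentrations, linear interpolation of endpoints. GI50: concentration for 50% inhibition of growth. TGI: total growth inhibition.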

System: NCI-H322M lung
Assay: NCI tumour cell line growth inhibition, 48 h

Row | Structure (SMILES) | GI50 | TGI
1 | COc1ccc(C(CC(=O)c2ccccc2)C(C(=O)c2ccccc2)C(c2ccc(OC)cc2)C2C(=O)NC(=O)NC2=O)cc1 (stereo not drawn) | 63.9 µM | > 100 µM
2 | c1ccc(COc2ccc(C[P+](c3ccccc3)(c3ccccc3)c3ccccc3)cc2)cc1 | – | 10.8 µM
3 | CC(=O)[CH-]C(=O)c1ccccc1.CC(=O)[CH-]C(=O)c1ccccc1.[Nd+3].[OH-].[OH3+] | > 100 µM | > 100 µM
4 | C1=C2SSC3=CC=C(SSc4ccc(s4)SSC4=CC=C(SSC(=C1)S2)S4)S3 | – | > 100 µM
5 | Cc1c(Cl)cccc1NC(=O)CC1Sc2ccccc2NC1=O (stereo not drawn) | – | 88.1 µM and 80.9 µM
6 | CC(C)(C)c1nc2c(o1)C(=Nc1ccccc1)c1ccccc1C2=O | – | 33.5 µM
7 | Cc1ncc([N+](=O)[O-])n1CCN(C)CCCCn1ccnc1[N+](=O)[O-] | – | > 100 µM
8 | COc1c(C2(c3ccc(F)cc3)SCCCS2)c(=O)c1=O | – | > 100 µM
9 | CC(=O)N[C@@H](Cc1ccc(O)cn1)C(=O)NCc1cccc(F)c1 | – | > 100 µM
10 | NCCC1(N)CCNCC1 | – | > 100 µM
11 | Oc1c(Cl)c2nccnc2c2ccccc12 | – | > 100 µM
12 | Cc1c(/C=C2\CC/C(=C\c3[nH]c(C(=O)OC(C)(C)C)c(C)c3C)C2=O)[nH]c(C(=O)OC(C)(C)C)c1C | – | > 100 µM
13 | COc1ccc(OC)c(/C=C/[N+](=O)[O-])c1 | – | 14.8 µM and 14.3 µM
14 | C=C/C(C)=C/[C@H](C)C(=O)C[C@H](O)CC1CC(=O)NC(=O)C1 | – | > 100 µM
15 | CCOC(=O)c1nc2c3c(ncn2n1)Oc1c(c(-c2ccccc2)nn1-c1ccccc1)C3c1ccc(OC)c(OC)c1 (stereo not drawn) | – | > 100 µM
16 | C=C1C(=O)O[C@H]2[C@H]1CC/C(COC(=O)OCCCCCOC(=O)OC/C1=C/CC[C@@]3(C)O[C@H]3[C@H]3OC(=O)C(=C)[C@@H]3CC1)=C\CC[C@@]1(C)O[C@@H]21 | 3.51 µM | 13.7 µM
17 | Cc1cc(-c2ccc(C(=O)C(Cl)(Cl)Cl)[nH]2)on1 | – | > 100 µM
18 | CSc1nc2c(c(N(C)C)n1)C=Nn1c(nc3ccccc31)S2 | – | > 100 µM
19 | OCCN1CCN(CCCN2c3ccccc3Sc3ccc(C(F)(F)F)cc32)CC1 | 6.47 µM and 12.9 µM and 14 µM | 13.2 µM and 27.6 µM and 31 µM
20 | Cc1ccc(N=Nc2c(O)c3ccccc3[nH]c2=O)c(S(=O)(=O)N(C)C)c1 | – | > 100 µM
21 | Nc1ccccc1C#C/C=C\C#Cc1ccc(F)cc1F | 10.5 µM | 34.9 µM
22 | O=C(Cc1ccc(Cl)c(Cl)c1)NCCCN1CCN(CCCN2CCCCC2)CC1 | – | 32.8 µM
23 | O=C(CCN1CCCCC1CCO)Nc1ccc2c(c1)C(=O)c1ccc(NC(=O)CCN3CCCCC3CCO)cc1C2=O (stereo not drawn) | – | 15.3 µM
24 | COc1cc2c(cc1O)[C@H](C)C(c1ccc(Cl)cc1)O2 (stereo partly drawn) | – | > 100 µM
25 | C[C@]12CC[C@H](O)CC1=CC[C@@H]1[C@@H]2CC[C@]2(C)C(=O)/C(=C/c3cccc(OCCCn4ccnc4)c3)C[C@@H]12 | 50.7 µM | > 100 µM
26 | COC(=O)Cc1c([C@@H]2Nc3ccccc3[C@H]2CC(=O)OC)[nH]c2ccccc12 | – | > 100 µM

Row | Structure (SMILES) | GI50 | TGI
27 | COc1ccc(-c2nc(-c3nc4ccc(F)cc4[nH]3)cc3c2[nH]c2ccccc23)cc1 | 2.77 µM | 8.78 µM
28 | Cc1cc(N(CCCl)CCCl)ccc1C=Nc1cccnc1 | 49 µM | > 100 µM
29 | COc1c2nc(CCl)n(C)c(=O)c2c(OC)c2c(=O)n(C)c(CCl)nc12 | – | 8.49 µM
30 | O=C1N[C@H]2c3c(Cl)sc(Cl)c3C(=O)[C@H]2O1 | – | 46.8 µM
31 | CN(NC(=O)c1ccco1)C1=NCCCCN1 | – | > 100 µM
32 | CCc1nc2c(O)ccc(O)c2nc1C | – | 32.7 µM
33 | Fc1cccc(F)c1C1SCC2=Nc3ccccc3CN21 (stereo not drawn) | – | > 100 µM
34 | ClCCN(CCCl)Cc1ccc(Nc2ccnc3cc(Cl)ccc23)cc1 | 2.79 µM | 6.8 µM
35 | Nc1c(Br)cc(-c2cc(Br)c(N)c(Br)c2)cc1Br | – | > 100 µM
36 | NC1=CN(CCCO)C2=N/C(=C\c3ccco3)C(=O)N12 | – | > 100 µM
37 | O=CC1=CCCC2(C1)OCCO2 | – | > 100 µM
38 | O=c1/c(=C/c2cccc3ccccc23)sc2nc3ccccc3n12 | – | > 100 µM
39 | O=C(NO)c1ccc(C(=O)NO)cc1 | – | > 100 µM
40 | CC1(C)CCc2c(cc3c(c2O)CCC(C)(C)O3)O1 | – | > 100 µM
41 | O=c1[nH]cnc2c1nnn2CCCn1nnc2c(=O)[nH]cnc21 | – | > 100 µM
42 | CCOC(=O)C1(Cc2ccc(C)cc2)Cc2ccc(C)cc2C1=O (stereo not drawn) | – | > 100 µM
43 | CCOC(=O)c1ccc(NC2Oc3cc4c(cc3C(c3cc(OC)c(OC)c(OC)c3)C2C)OCO4)cc1 (stereo not drawn) | – | > 100 µM
44 | CCC(=O)Sc1ccccc1C(=O)Nc1ccc(Cl)cc1 | 18.1 µM | 78.7 µM
45 | CO/N=C(\c1ccccc1)c1cnn(-c2ccccc2)c1N | > 25 µM | > 25 µM
46 | CCCCN(CC)C(=O)C(=O)C1C(=O)Nc2ccccc2S1=O (stereo not drawn) | – | > 100 µM
47 | Cc1ccc(-c2cc(-c3ccco3)nc(N)n2)o1 | – | > 100 µM
48 | COc1ccc(-c2cc(C(=O)Nc3cccc(C(F)(F)F)c3)[nH]c(=S)n2)cc1 | – | > 100 µM
49 | N#Cc1c(-c2ccco2)c2c(n(C3OC(CO)C(O)C(O)C3O)c1=S)CCCC2 (stereo not drawn) | – | > 100 µM
50 | COc1ccc(CNc2cc(OC)cc(OC)c2)cc1 | – | > 100 µM
51 | Nc1nc2ncn(CCO)c2c(=O)[nH]1 | – | > 100 µM
52 | C/C(=N\Nc1nc2cc(C)ccc2s1)c1ccccn1 | – | 41.1 µM
